{
  "source": "ChEMBL document CHEMBL4888484",
  "about": "“Replenishing the malaria drug discovery pipeline: Screening and hit evaluation of the MMV Hit Generation Library 1 (HGL1) against asexual blood stage Plasmodium falciparum ,using a nano luciferase reporter read-out” (2022)",
  "note": "About 540 (0.36%) of roughly 150,000 compounds showed an effect of 50% or more. This is one part of the list.",
  "data": [
    {"system": "Plasmodium falciparum", "test": "Primary screen in NF54 nanoGlo assay, in single point, at 2uM, 72h; a lower Z score goes with more inhibition", "assay_type": "functional, Erythrocyte", "settings": "timepoint 72 hour", "units": {"% Inhibition": "%"}, "values": [
      {"molecule": "Cc1cc(C)cc(CN2C(=O)NC3(CC(O)C3)C2=O)c1", "note": "(stereo not given)", "% Inhibition": -9, "Z score": 0.94},
      {"molecule": "CC(C)NC(=O)N(Cc1ccccc1)C[C@H]1CC(c2ccc(Cl)c(Cl)c2)=NO1", "% Inhibition": -6, "Z score": 0.5},
      {"molecule": "C[C@@H](NC(=O)[C@@H]1C[C@H]1c1ccc(Cl)cc1)C(=O)N1Cc2ccccc2C1", "% Inhibition": -9, "Z score": 1.24},
      {"molecule": "Cc1ncc(-c2ccccc2)cc1NC(=O)c1nccnc1N", "% Inhibition": -1, "Z score": 0.19},
      {"molecule": "COc1ccc(CCNC(=O)C2CCN(c3nccn4nc5c(c34)CCCC5)CC2)cc1OC", "% Inhibition": 41, "Z score": -6.38},
      {"molecule": "Nc1cc2c3c(cccc3c1)C(=O)OC2=O", "% Inhibition": -19, "Z score": 2.51},
      {"molecule": "COc1ccc(S(=O)(=O)N(CC(=O)NCc2cccnc2)C2CCCCC2)cc1OC", "% Inhibition": 39, "Z score": -1.11},
      {"molecule": "Cn1nc2c(c1CNc1nnc(-c3cccs3)o1)COCC2", "% Inhibition": -6, "Z score": 0.82},
      {"molecule": "c1ccn2c(C3CCCCC3)ncc2c1", "% Inhibition": -9, "Z score": 1.21},
      {"molecule": "CCOC(=O)N1CCc2c(nc(-c3ccc(C)cc3)n(CC(=O)Nc3ccc(C)c(Cl)c3)c2=O)C1", "% Inhibition": 4, "Z score": -0.65},
      {"molecule": "CCC(=O)N1CCC(NCc2ccc(C)o2)C(C)C1", "note": "(stereo not given)", "% Inhibition": -6, "Z score": 0.81},
      {"molecule": "CCCC1(CCC)NC(=O)N(CC(=O)N2C(C)CCCC2C)C1=O", "note": "(stereo not given)", "% Inhibition": -16, "Z score": 3.26},
      {"molecule": "O=S(=O)(Cc1ccccc1)NCC1(Cc2ccccc2)CC1", "% Inhibition": -5, "Z score": 0.93},
      {"molecule": "O=C1CCC2(CCN(C(=O)N[C@@H](Cc3ccccc3)c3ccccc3)CC2)N1", "% Inhibition": -2, "Z score": 0.45},
      {"molecule": "COc1ccc(CN2CC=C(C)CC2)cc1Cn1cccn1", "% Inhibition": -17, "Z score": 1.46},
      {"molecule": "CC[C@H](NC(=O)Cc1ccc(O)cc1)C1CC(O)C1", "note": "(stereo not given in full)", "% Inhibition": -11, "Z score": 1.61},
      {"molecule": "COc1ccccc1CNC(=O)[C@]1(C)Cn2cnc(C(=O)NCCN3CCCC3)c2C(=O)N1C1CC1", "% Inhibition": -27, "Z score": 2.7},
      {"molecule": "CCNC(=O)N1CC(C(=O)NCC2CC2)CCC1c1cccc(C)c1", "note": "(stereo not given)", "% Inhibition": -19, "Z score": 2.76},
      {"molecule": "Cn1nc(C(=O)N2C[C@@H]3NC(=O)c4ccc(Cl)c(c4)OCCCn4cc(nn4)CO[C@H]3C2)ccc1=O", "% Inhibition": -8, "Z score": 1.45},
      {"molecule": "COc1ccc(N(CC(=O)N2CCNC2=O)C(C)C)cc1F", "% Inhibition": -3, "Z score": 0.6},
      {"molecule": "CCOC(=O)c1coc(N2CCN(c3ccc(OC)cc3)C[C@@H]2C)n1", "% Inhibition": -11, "Z score": 1.33},
      {"molecule": "O=C(NCc1ccnc(N2CCCC2)n1)c1cccc(Cl)c1", "% Inhibition": -8, "Z score": 1.58},
      {"molecule": "COC[C@@H](O)CN(C)Cc1ccc(C#N)cc1Br", "% Inhibition": -5, "Z score": 0.4},
      {"molecule": "O=C(c1ccccc1F)N1CCc2nc(N3CCCCC3)nc(Oc3ccc(F)c(F)c3)c2C1", "% Inhibition": -8, "Z score": 0.8},
      {"molecule": "CC1CC(C)(C)CCC1NC(=O)CCc1cscn1", "note": "(stereo not given)", "% Inhibition": -17, "Z score": 1.85},
      {"molecule": "Cc1ccc(F)c(NS(=O)(=O)c2cc3n(c2)CCCN(C)C3=O)c1", "% Inhibition": -11, "Z score": 1.33},
      {"molecule": "CN(C(=O)C1CC1c1ccc(F)c(F)c1)c1c(F)cccc1C(N)=O", "note": "(stereo not given)", "% Inhibition": -8, "Z score": 1.33},
      {"molecule": "COc1cc(OC)nc(N2CC(=O)N[C@@H](C)C2)n1", "% Inhibition": -10, "Z score": 1.75},
      {"molecule": "C[C@@H](CCc1ccco1)Nc1nc(-c2ccc[nH]c2=O)cs1", "% Inhibition": 11, "Z score": -1.93},
      {"molecule": "Cc1ccc(C)c(Cc2noc(CN3CCNC(=O)C3)n2)c1", "% Inhibition": 0, "Z score": 0.04},
      {"molecule": "CCc1nc(N(CCOC)CCC(=O)NCc2ccccc2)c2cc(Cl)cc(Cl)c2n1", "% Inhibition": -4, "Z score": 0.57},
      {"molecule": "CN(CCC(F)(F)F)C(=O)Nc1ccc(C(C)(C)C)nn1", "% Inhibition": -8, "Z score": 1.56},
      {"molecule": "NC(=O)N1CCC[C@H]1C(=O)N1CCC(C2CCCC2)C1", "note": "(stereo not given in full)", "% Inhibition": -22, "Z score": 3.05},
      {"molecule": "CCOC(=O)c1cc2cccnc2nc1C", "% Inhibition": -8, "Z score": 0.99},
      {"molecule": "Cc1cc(C)c(-n2cccn2)c([C@H]2NCCc3[nH]cnc32)c1", "% Inhibition": -9, "Z score": 0.88},
      {"molecule": "Cc1ccc(Cl)cc1NC(=O)N(C)CCc1noc(C(=O)NCc2ccc3c(c2)OCO3)n1", "% Inhibition": 14, "Z score": -1.32},
      {"molecule": "CCc1nccn1C[C@H](C)N1CCN(Cc2ccc3c(c2)OCO3)CC1", "% Inhibition": -6, "Z score": 0.7},
      {"molecule": "NC(=O)[C@H]1CCCN1Cc1ccc2c3c(cccc13)C(=O)OC2", "% Inhibition": 3, "Z score": -0.37},
      {"molecule": "COCCN(CC1(C)CCOCC1)C(=O)c1ccsc1", "% Inhibition": 1, "Z score": -0.11},
      {"molecule": "Cc1cc(C(=O)N2CCN(c3ncccn3)CC2)on1", "% Inhibition": 1, "Z score": -0.19},
      {"molecule": "CC(=O)c1sc(NC(=O)CC2CC3CCC2C3)nc1-c1ccccc1", "note": "(stereo not given)", "% Inhibition": -12, "Z score": 1.53},
      {"molecule": "NC(=O)C1CCCC(NC(=O)CN2C(=O)c3ccccc3C2=O)C1", "note": "(stereo not given)", "% Inhibition": 29, "Z score": -3.24},
      {"molecule": "CC(C)(C)C(=O)CNC(=O)C1(O)CCCC1", "% Inhibition": -2, "Z score": 0.29},
      {"molecule": "COc1cc2c(cc1OC)CN(C(=O)c1ccc(CS(=O)(=O)c3ccccc3)o1)CC2", "% Inhibition": 9, "Z score": -1.02},
      {"molecule": "O=C1NCCOCCN(S(=O)(=O)c2cccnc2)[C@H]2CCC[C@@H]12", "% Inhibition": 1, "Z score": -0.1},
      {"molecule": "O=C(Nc1nnc(CC2CCCC2)s1)c1cnccn1", "% Inhibition": 0, "Z score": -0.05},
      {"molecule": "Cc1cnc(NC(=O)C2C3CCCC32)[nH]1", "note": "(stereo not given)", "% Inhibition": -1, "Z score": 0.11},
      {"molecule": "O=C(NC1CCN(Cc2ccccc2)CC1)c1n[nH]c2c1CCc1ccccc1-2", "% Inhibition": 2, "Z score": -0.15},
      {"molecule": "CN(Cc1ccccc1Br)C(=O)CCNC(=O)CC#N", "% Inhibition": 1, "Z score": -0.2},
      {"molecule": "c1cc(OCCO[C@@H]2CCCCO2)cc(-n2ccnc2)c1", "% Inhibition": -5, "Z score": 0.68},
      {"molecule": "Cc1nc([C@H](C)n2ccnc2C(C)C)n(CCO)n1", "% Inhibition": -11, "Z score": 1.48},
      {"molecule": "CCc1ccc(N(CC)C(=O)Cn2c(=O)c3c(C)cc(C)nc3n(C)c2=O)cc1", "% Inhibition": -7, "Z score": 1.03},
      {"molecule": "O=C(CCN1CCCCO1)NCc1cccs1", "% Inhibition": -14, "Z score": 2.69},
      {"molecule": "CC1CC(C)CN(S(=O)(=O)N2CCCC(C(=O)NCc3ccccc3Cl)C2)C1", "note": "(stereo not given)", "% Inhibition": -5, "Z score": 0.76},
      {"molecule": "CCCCn1nnnc1NC(=O)N1CCC[C@H]1c1nonc1C", "% Inhibition": -14, "Z score": 1.28}
    ]}
  ]
}
